Source: the supplement of paper PMC8728848
Some of the results follow.

Key:
Assay in all cases: glycan array binding signal (z-score within array); higher = stronger binding
Settings in all cases: glycan notation: IUPAC condensed, linker removed; mutation: R343A
[1] = target: Neu5Ac(a2-3)Gal(b1-3)[Fuc(a1-4)]GlcNAc(b1-3)Gal(b1-4)[Fuc(a1-3)]GlcNAc
Method in brief: (§1)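 From the Consortium for Functional Glycomics database, 3228 arrays were curated, keeping only those whose protein sequence was available. Binding is given as a within-array Z-score averaged across arrays sharing a protein sequence and across linkers. Negative Z-scores can be read as non-binding.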

[2] = target: Neu5Ac(a2-3)Gal(b1-3)[Neu5Ac(a2-3)Gal(b1-4)]GlcNAc
Method in brief: as §1

[3] = target: Neu5Ac(a2-3)Gal(b1-3)[Neu5Ac(a2-6)]GalNAc
Method in brief: as §1

Neu5Ac(a2-3)Gal(b1-4)Glc = target: Neu5Ac(a2-3)Gal(b1-4)Glc
Method in brief: as §1

[4] = target: Neu5Ac(a2-3)Gal(b1-4)GlcNAc
Method in brief: as §1

[5] = target: Neu5Ac(a2-3)Gal(b1-4)GlcNAc(b1-2)Man(a1-3)[GlcNAc(b1-2)Man(b1-4)GlcNAc(b1-2)Man(a1-6)]Man(b1-4)GlcNAc(b1-4)GlcNAc
Method in brief: as §1

[6] = target: Neu5Ac(a2-3)Gal(b1-4)GlcNAc(b1-2)Man(a1-3)[Neu5Ac(a2-6)Gal(b1-4)GlcNAc(b1-2)Man(a1-6)]Man(b1-4)GlcNAc(b1-4)GlcNAc
Method in brief: as §1

[7] = target: Neu5Ac(a2-3)Gal(b1-4)GlcNAc(b1-3)Gal(b1-3)GlcNAc
Method in brief: as §1

[8] = target: Neu5Ac(a2-3)Gal(b1-4)GlcNAc(b1-3)Gal(b1-4)GlcNAc
Method in brief: as §1

[9] = target: Neu5Ac(a2-3)Gal(b1-4)GlcNAc(b1-3)Gal(b1-4)GlcNAc(b1-3)Gal(b1-4)GlcNAc
Method in brief: as §1

[10] = target: Neu5Ac(a2-3)Gal(b1-4)GlcNAc(b1-3)Gal(b1-4)[Fuc(a1-3)]GlcNAc
Method in brief: as §1

[11] = target: Neu5Ac(a2-3)Gal(b1-4)GlcNAc(b1-6)[Gal(b1-3)]GalNAc
Method in brief: as §1

[12] = target: Neu5Ac(a2-3)Gal(b1-4)GlcNAc(b1-6)[Neu5Ac(a2-3)Gal(b1-3)]GalNAc
Method in brief: as §1

[13] = target: Neu5Ac(a2-3)Gal(b1-4)GlcNAc6S
Method in brief: as §1

[14] = target: Neu5Ac(a2-3)Gal(b1-4)[Fuc(a1-3)]GlcNAc
Method in brief: as §1

[15] = target: Neu5Ac(a2-3)Gal(b1-4)[Fuc(a1-3)]GlcNAc(b1-3)Gal
Method in brief: as §1

[16] = target: Neu5Ac(a2-3)Gal(b1-4)[Fuc(a1-3)]GlcNAc(b1-3)Gal(b1-4)GlcNAc
Method in brief: as §1

[17] = target: Neu5Ac(a2-3)Gal(b1-4)[Fuc(a1-3)]GlcNAc(b1-3)Gal(b1-4)[Fuc(a1-3)]GlcNAc(b1-3)Gal(b1-4)[Fuc(a1-3)]GlcNAc
Method in brief: as §1

[18] = target: Neu5Ac(a2-3)Gal(b1-4)[Fuc(a1-3)]GlcNAc(b1-6)[Gal(b1-3)]GalNAc
Method in brief: as §1

[19] = target: Neu5Ac(a2-3)Gal(b1-4)[Fuc(a1-3)]GlcNAc6S
Method in brief: as §1

[20] = target: Neu5Ac(a2-3)Gal6S(b1-4)GlcNAc
Method in brief: as §1

[21] = target: Neu5Ac(a2-3)Gal6S(b1-4)[Fuc(a1-3)]GlcNAc
Method in brief: as §1

Neu5Ac(a2-3)GalNAc = target: Neu5Ac(a2-3)GalNAc
Method in brief: as §1

[22] = target: Neu5Ac(a2-3)GalNAc(b1-4)GlcNAc
Method in brief: as §1

[23] = target: Neu5Ac(a2-3)[GalNAc(b1-4)]Gal(b1-4)Glc
Method in brief: as §1

[24] = target: Neu5Ac(a2-3)[GalNAc(b1-4)]Gal(b1-4)GlcNAc
Method in brief: as §1

[25] = target: Neu5Ac(a2-3)[Neu5Ac(a2-6)]GalNAc
Method in brief: as §1

Neu5Ac(a2-6)Gal = target: Neu5Ac(a2-6)Gal
Method in brief: as §1

Neu5Ac(a2-6)Gal(b1-4)Glc = target: Neu5Ac(a2-6)Gal(b1-4)Glc
Method in brief: as §1

[26] = target: Neu5Ac(a2-6)Gal(b1-4)GlcNAc
Method in brief: as §1

[27] = target: Neu5Ac(a2-6)Gal(b1-4)GlcNAc(b1-2)Man(a1-3)[Gal(b1-4)GlcNAc(b1-2)Man(a1-6)]Man(b1-4)GlcNAc(b1-4)GlcNAc
Method in brief: as §1

[28] = target: Neu5Ac(a2-6)Gal(b1-4)GlcNAc(b1-2)Man(a1-3)[GlcNAc(b1-2)Man(a1-6)]Man(b1-4)GlcNAc(b1-4)GlcNAc
Method in brief: as §1

[29] = target: Neu5Ac(a2-6)Gal(b1-4)GlcNAc(b1-2)Man(a1-3)[GlcNAc(b1-2)Man(b1-4)GlcNAc(b1-2)Man(a1-6)]Man(b1-4)GlcNAc(b1-4)GlcNAc
Method in brief: as §1

[30] = target: Neu5Ac(a2-6)Gal(b1-4)GlcNAc(b1-2)Man(a1-3)[Neu5Ac(a2-6)Gal(b1-4)GlcNAc(b1-2)Man(a1-6)]Man(b1-4)GlcNAc(b1-4)GlcNAc
Method in brief: as §1

[31] = target: Neu5Ac(a2-6)Gal(b1-4)GlcNAc(b1-2)Man(a1-6)[Gal(b1-4)GlcNAc(b1-2)Man(a1-3)]Man(b1-4)GlcNAc(b1-4)GlcNAc
Method in brief: as §1

[32] = target: Neu5Ac(a2-6)Gal(b1-4)GlcNAc(b1-2)Man(a1-6)[GlcNAc(b1-2)Man(a1-3)]Man(b1-4)GlcNAc(b1-4)GlcNAc
Method in brief: as §1

[33] = target: Neu5Ac(a2-6)Gal(b1-4)GlcNAc(b1-3)Gal(b1-4)GlcNAc
Method in brief: as §1

[34] = target: Neu5Ac(a2-6)Gal(b1-4)GlcNAc(b1-3)Gal(b1-4)[Fuc(a1-3)]GlcNAc(b1-3)Gal(b1-4)[Fuc(a1-3)]GlcNAc
Method in brief: as §1

[35] = target: Neu5Ac(a2-6)Gal(b1-4)GlcNAc6S
Method in brief: as §1

Neu5Ac(a2-6)GalNAc = target: Neu5Ac(a2-6)GalNAc
Method in brief: as §1

[36] = target: Neu5Ac(a2-6)GalNAc(b1-4)GlcNAc
Method in brief: as §1

Neu5Ac(a2-8)Neu5Ac = target: Neu5Ac(a2-8)Neu5Ac
Method in brief: as §1

[37] = target: Neu5Ac(a2-8)Neu5Ac(a2-3)Gal(b1-4)Glc
Method in brief: as §1

[38] = target: Neu5Ac(a2-8)Neu5Ac(a2-3)[GalNAc(b1-4)]Gal(b1-4)Glc
Method in brief: as §1

[39] = target: Neu5Ac(a2-8)Neu5Ac(a2-8)Neu5Ac
Method in brief: as §1

[40] = target: Neu5Ac(a2-8)Neu5Ac(a2-8)Neu5Ac(a2-3)Gal(b1-4)Glc
Method in brief: as §1

[41] = target: Neu5Ac(a2-8)Neu5Ac(a2-8)Neu5Ac(a2-3)[GalNAc(b1-4)]Gal(b1-4)Glc
Method in brief: as §1

[42] = target: Neu5Ac(a2-8)Neu5Ac(a2-8)Neu5Ac(a2-8)Neu5Ac(a2-3)[GalNAc(b1-4)]Gal(b1-4)Glc
Method in brief: as §1

[43] = target: Neu5Ac(b2-6)Gal(b1-4)GlcNAc
Method in brief: as §1

Neu5Ac(b2-6)GalNAc = target: Neu5Ac(b2-6)GalNAc
Method in brief: as §1

[44] = target: Neu5Ac9Ac(a2-6)Gal(b1-4)GlcNAc
Method in brief: as §1

[45] = target: Neu5Gc(a2-3)Gal(b1-3)GlcNAc
Method in brief: as §1

[46] = target: Neu5Gc(a2-3)Gal(b1-3)[Fuc(a1-4)]GlcNAc
Method in brief: as §1

Neu5Gc(a2-3)Gal(b1-4)Glc = target: Neu5Gc(a2-3)Gal(b1-4)Glc
Method in brief: as §1

[47] = target: Neu5Gc(a2-3)Gal(b1-4)GlcNAc
Method in brief: as §1

[48] = target: Neu5Gc(a2-3)Gal(b1-4)[Fuc(a1-3)]GlcNAc
Method in brief: as §1

[49] = target: Neu5Gc(a2-6)Gal(b1-4)GlcNAc
Method in brief: as §1

Neu5Gc(a2-6)GalNAc = target: Neu5Gc(a2-6)GalNAc
Method in brief: as §1

[50] = target: Neu5Gc(b2-6)Gal(b1-4)GlcNAc
Method in brief: as §1

B1: Surfactant Protein D (Human); Neck + Carbohydrate Recognition Domain (NCRD) (Homo sapiens) (protein)
chain: MLLFLLSALVLLTQPLGYLEAEMKTYSHRTMPSACTLVMCSSVESGLPGRDRDGREGPRGEKGDPGLPGAAGQAGMPGQAGPVGPKGDNGSVGEPGPKGDTGPSGPPGPPGVPGPAGREGALGKQGNIGPQGKPGPKGEAGPKGEVGAPGMQGSAGARGLAGPKGERGVPGERGVPGNTGAAGSAGAMGPQGSPGARGPPGLKGDKGIPGDKGAKGESGLPDVASLRQQVEALQGQVQHLQAAFSQYKKVELFPNGQSVGEKIFKTAQFVKPFTEAQLLCTQAGGQLASPRSAAENAALQQLVVAKNEAAFLSMTDSKTEGKFTYPTGESLVYSNWAPGEPNDDGGSEDCVEIFTNGKWNDAACGEKRLVVCEF
What does the source list for B1?
glycan array binding signal (z-score) [1]: -0.192; glycan array binding signal (z-score) [2]: -0.002; glycan array binding signal (z-score) [3]: -0.125; glycan array binding signal (z-score) (Neu5Ac(a2-3)Gal(b1-4)Glc): -0.267; glycan array binding signal (z-score) [4]: -0.226; glycan array binding signal (z-score) [5]: -0.006; glycan array binding signal (z-score) [6]: -0.183; glycan array binding signal (z-score) [7]: -0.244; glycan array binding signal (z-score) [8]: -0.42; glycan array binding signal (z-score) [9]: -0.097; glycan array binding signal (z-score) [10]: -0.226; glycan array binding signal (z-score) [11]: -0.384; glycan array binding signal (z-score) [12]: -0.035; glycan array binding signal (z-score) [13]: -0.474; glycan array binding signal (z-score) [14]: 0.064; glycan array binding signal (z-score) [15]: -0.015; glycan array binding signal (z-score) [16]: -0.129; glycan array binding signal (z-score) [17]: 0.029; glycan array binding signal (z-score) [18]: -0.141; glycan array binding signal (z-score) [19]: -0.436; glycan array binding signal (z-score) [20]: -0.082; glycan array binding signal (z-score) [21]: -0.144; glycan array binding signal (z-score) (Neu5Ac(a2-3)GalNAc): -0.123; glycan array binding signal (z-score) [22]: 0.101; glycan array binding signal (z-score) [23]: -0.095; glycan array binding signal (z-score) [24]: -0.157; glycan array binding signal (z-score) [25]: -0.203; glycan array binding signal (z-score) (Neu5Ac(a2-6)Gal): -0.19; glycan array binding signal (z-score) (Neu5Ac(a2-6)Gal(b1-4)Glc): -0.328; glycan array binding signal (z-score) [26]: -0.175; glycan array binding signal (z-score) [27]: -0.124; glycan array binding signal (z-score) [28]: -0.145; glycan array binding signal (z-score) [29]: -0.019; glycan array binding signal (z-score) [30]: -0.213; glycan array binding signal (z-score) [31]: -0.314; glycan array binding signal (z-score) [32]: -0.034; glycan array binding signal (z-score) [33]: -0.219; glycan array binding signal (z-score) [34]: -0.332; glycan array binding signal (z-score) [35]: 0.52; glycan array binding signal (z-score) (Neu5Ac(a2-6)GalNAc): 0.053; glycan array binding signal (z-score) [36]: -0.271; glycan array binding signal (z-score) (Neu5Ac(a2-8)Neu5Ac): 1.85; glycan array binding signal (z-score) [37]: 0.261; glycan array binding signal (z-score) [38]: -0.141; glycan array binding signal (z-score) [39]: -0.205; glycan array binding signal (z-score) [40]: -0.051; glycan array binding signal (z-score) [41]: -0.18; glycan array binding signal (z-score) [42]: 0.094; glycan array binding signal (z-score) [43]: -0.183; glycan array binding signal (z-score) (Neu5Ac(b2-6)GalNAc): -0.346; glycan array binding signal (z-score) [44]: -0.418; glycan array binding signal (z-score) [45]: 0.033; glycan array binding signal (z-score) [46]: -0.262; glycan array binding signal (z-score) (Neu5Gc(a2-3)Gal(b1-4)Glc): -0.26; glycan array binding signal (z-score) [47]: -0.168; glycan array binding signal (z-score) [48]: -0.246; glycan array binding signal (z-score) [49]: -0.065; glycan array binding signal (z-score) (Neu5Gc(a2-6)GalNAc): -0.406; glycan array binding signal (z-score) [50]: -0.326
